Hit rate of the full screen: of about 16,000 compounds, about 120 (0.75%) were called active. Not shown: some 4% with an inconclusive outcome. Calls follow the shape of the dose curve; as a rule, active = well fitted inhibition curve with a large enough effect; inconclusive = small, poorly fitted or top-dose-only effect; inactive = no such curve, though single readings can be large or run the other way. Some of the results follow.
Biological target: Rap guanine nucleotide exchange factor 3 (Homo sapiens) (UniProt O95398)
UniProt O95398, sequence (O95398 whole entry, looked up): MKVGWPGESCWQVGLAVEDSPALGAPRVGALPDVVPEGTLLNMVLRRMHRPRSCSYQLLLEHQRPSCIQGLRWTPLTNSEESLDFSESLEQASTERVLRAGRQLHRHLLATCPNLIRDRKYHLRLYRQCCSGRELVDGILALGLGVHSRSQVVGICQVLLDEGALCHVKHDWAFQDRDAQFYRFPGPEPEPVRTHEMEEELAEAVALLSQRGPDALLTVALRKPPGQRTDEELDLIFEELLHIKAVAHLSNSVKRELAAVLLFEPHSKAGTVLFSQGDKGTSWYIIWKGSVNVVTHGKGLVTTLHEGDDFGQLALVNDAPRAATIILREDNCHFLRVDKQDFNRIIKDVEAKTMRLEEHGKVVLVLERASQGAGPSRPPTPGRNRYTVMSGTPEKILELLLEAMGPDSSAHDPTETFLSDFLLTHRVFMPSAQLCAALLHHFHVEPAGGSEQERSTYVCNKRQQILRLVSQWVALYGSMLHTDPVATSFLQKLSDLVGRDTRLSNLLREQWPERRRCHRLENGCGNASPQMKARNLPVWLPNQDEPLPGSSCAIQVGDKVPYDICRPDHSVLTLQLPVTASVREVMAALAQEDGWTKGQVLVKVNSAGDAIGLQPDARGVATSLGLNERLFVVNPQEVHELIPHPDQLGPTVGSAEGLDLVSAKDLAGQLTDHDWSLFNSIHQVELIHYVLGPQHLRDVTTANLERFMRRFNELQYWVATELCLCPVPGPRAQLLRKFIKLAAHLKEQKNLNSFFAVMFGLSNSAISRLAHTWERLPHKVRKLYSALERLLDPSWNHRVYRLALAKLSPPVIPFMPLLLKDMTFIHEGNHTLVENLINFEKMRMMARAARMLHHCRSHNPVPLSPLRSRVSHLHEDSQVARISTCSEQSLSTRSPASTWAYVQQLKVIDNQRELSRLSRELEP
Test: Validation qHTS for antagonist of cAMP-regulated guanine nucleotide exchange factor 3 (EPAC1); also: nearly all actives have a fitted effect of over 75% in size
Details: EPAC1 Rap1B-BODIPY-GDP exchange, fluorescence; series mostly up to 150 µM; activity change, negative = inhibition: at the top concentration
Procedure, shortened: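 EPAC1 (100 nM) mixed with 250 nM RAP1B-BODIPY-GDP and 50 uM GDP; compounds in concentration series, 5 min at room temperature. Fluorescence (ex 480/em 540 nm) read every 5 min for 30 min; normalized to ATA control and DMSO.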
Potency is read from the fitted curve at half-maximal effect.

Structure (SMILES) | activity change, negative = inhibition | Potency
NC(=O)CCCCC1CCSS1 (stereo unspecified) | inactive: 18.1% | –
CC(Oc1ccccc1)C(=O)N[C@@H]1C(=O)N2C(C(=O)O)C(C)(C)S[C@H]12 (stereo partly specified) | inactive: 9.13% | –
CC(C)NC[C@@H](O)COc1ccc(CC(N)=O)cc1 | inactive: 13.9% | –
CCNc1ncc2nc(-c3ccccc3)c(=O)n(CCC#N)c2n1 | inactive: 26.1% | –
NS(=O)(=O)c1cc2c(cc1C(F)(F)F)NCNS2(=O)=O | inactive | –
C=C1/C(=C\C=C2/CCC[C@]3(C)[C@@H]([C@H](C)OCCC(C)(C)O)CC[C@@H]23)C[C@@H](O)C[C@@H]1O | inactive: -4.66% | –
COC1(C2=NCCN2)COc2ccccc2O1 (stereo unspecified) | inactive: 17.4% [at 75.8 µM] | –
O=C(C[n+]1ccccc1)c1cccc([N+](=O)[O-])c1 | inactive: 22.2% | –
CC(O)Cn1cnc2c1c(=O)n(C)c(=O)n2C (stereo unspecified) | inactive: 12.4% [at 75.8 µM] | –
Cc1cnc(CNc2ccnc(-c3ccc(N(C)C)cc3)n2)cn1 | inactive: 22.5% | –
NCCCC[C@H](N)C(=O)O | inactive: 16.3% | –
COc1ncc2nc(-c3cccs3)c(=O)n(Cc3ccc(F)cc3)c2n1 | inactive: -18.1% | –
Cc1ccccc1-c1nc(NC2CCNCC2)c2ccccc2n1 | inactive: 29.9% | –
COc1cccc(Cn2c(=O)c(-c3cn(C)c4ccccc34)nc3cnc(OC)nc32)c1 | inactive: 15.8% | –
Nc1cc(=O)[nH]c(N)n1 | inactive | –
O=C(OOC(=O)c1ccccc1)c1ccccc1 | inactive: 17.1% | –
N[C@@H](Cc1c[nH]c2ccccc12)C(=O)O | inactive: -10.1% [at 75.8 µM] | –
O=C(O)c1nc(=O)[nH]c(=O)[nH]1 | inactive: 1.18% | –
Oc1ccc(Cl)cc1CN1CCOc2c(O)cc(-c3nc4ccccc4s3)cc2C1 | inactive: -0.949% | –
Cc1cc(C)n(CCC(=O)NCC2Cc3cc(Cl)cc(-c4cnccn4)c3O2)n1 (stereo unspecified) | inactive: 9.37% | –
NC(=O)CCCCn1ccc(NC(N)=NCC(F)(F)F)n1 | inactive | –
O=C(Nc1ccccc1)[C@@]12C[C@@H]1/C(=N/O)c1ccccc1O2 | inactive: -12.5% | –

Structure (SMILES) | activity change, negative = inhibition | Potency
OCc1c[nH]c2ccccc12 | inactive | –
COC(=O)C1=C(C)NC(C)=C([N+](=O)[O-])[C@H]1c1ccccc1C(F)(F)F | inactive: -26.3% | –
COc1ccc(CNC(=O)c2cnn(-c3nccc(-c4ccco4)n3)c2C)cc1OC | inactive: 17.1% | –
CC(=O)NCc1c(I)c(NC(C)=O)c(I)c(C(=O)O)c1I | inactive: 26.6% | –
O=S1(=O)CCOC[C@H](Cc2ccccc2)N1Cc1ccccc1Br | inactive: -9.16% | –
Cc1nnc(C(C)C)n1C1C[C@H]2CC[C@@H](C1)N2CC[C@H](NC(=O)C1CCC(F)(F)CC1)c1ccccc1 (stereo partly specified) | inactive: -5.92% | –
O=C(Nc1ccc(Br)cc1)c1cc(Br)c(Br)s1 | inactive: -4.03% | –
COc1ccc(C(=O)N2CCC3(CCN(C)CC3)CC2)cc1 | inactive: 13.2% | –
O=C(/C=C/c1ccc(O)cc1)c1ccc(O)cc1O | inactive | –
Cc1ccc2[nH]c(C(=O)N3CCc4c(cnc(C)c4CNC(=O)c4ccccc4F)C3)cc2c1 | inactive: 19.3% | –
CCCCCCCCC(=O)NCc1cc(OC)c(O)cc1I | inactive: 7.94% | –
Cc1c(NC(=O)c2cccnc2)c(=O)n(-c2ccccc2)n1C | inactive | –
Nc1nc2nc(Cl)[nH]c2c(=O)[nH]1 | inactive: 3.33% | –
C[C@]12CCC(=O)C=C1CCC1C3CC[C@](O)(C(=O)CO)[C@@]3(C)CC3OC312 (stereo partly specified) | inactive: 8.61% | –
CCOC(=O)C1CCCCN1C(=O)c1ccc(-n2cc(NC(=O)c3cccnc3)cn2)cc1 (stereo unspecified) | inactive: 3.46% | –
CS(=O)(=O)OCCCCOS(C)(=O)=O | inactive | –
COc1cccc(CNC(=O)c2c(OC)cc(=O)n3c2CCN(C(=O)C2CC=CCC2)CC3)c1 (stereo unspecified) | inactive: 12.6% | –
N[C@@H](Cc1cc(I)c(Oc2ccc(O)c(I)c2)c(I)c1)C(=O)O | inactive | –
Cc1cc(=O)oc2cc(O[C@@H]3O[C@H](C(=O)O)[C@@H](O)[C@H](O)[C@H]3O)ccc12 | inactive: 13% | –
COc1cc(OC)c2nc(-c3cc4c(c(OC)c3)OCCN(C(=O)CC3NC(=O)c5ccccc53)C4)cc(C)c2c1 (stereo unspecified) | inactive: -5.65% | –
O=C(c1ccco1)N1CCC2(CCN(Cc3ccccc3)CC2)CC1 | inactive: 2.54% | –
c1cncc(CNc2ncncc2-c2cccnc2)c1 | inactive: 3.26% | –

Structure (SMILES) | activity change, negative = inhibition | Potency
Cc1ccc2oc(-c3ccccc3)cc(=O)c2c1 | inactive: -12.6% | –
COC1C(O)C(CO)OC1n1cnc2c(=O)[nH]c(N)nc21 (stereo unspecified) | inactive: 17.4% | –
Cc1cnc(-n2ncc(C(=O)NCc3ccccn3)c2C2CC2)nc1-c1cccs1 | inactive: 19.3% | –
O=C1C[C@H]2C=CCc3cccc(c32)CN1Cc1ccccc1 | inactive: 12.6% | –
CNc1ncnc2ccc(-c3cccc(NS(C)(=O)=O)c3)cc12 | inactive: 25.4% | –
COc1ccc(S(=O)(=O)NCc2nc(N3CCCC3)c3cccc(C)c3n2)cc1OC | inactive: 17.6% | –
CC[C@@]1(c2ccccc2)NC(=O)N(C)C1=O | inactive: 17.6% | –
O=C(OC[C@H]1O[C@](O)(COC(=O)c2cccnc2)[C@@H](OC(=O)c2cccnc2)[C@@H]1OC(=O)c1cccnc1)c1cccnc1 | inactive: 16.7% | –
COc1cccc(-c2nccc(NCc3cnc(C)cn3)n2)c1 | inactive: 3.57% | –
CCNc1ncc2nc(-c3cc(F)cc(F)c3)c(=O)n(-c3ccccc3)c2n1 | inactive: 10% | –
CC1(C(=O)O)NCCc2cc(O)c(O)cc21 (stereo unspecified) | inactive: 23% | –
Cl/C(=C\n1cncn1)c1ccc(Cl)cc1Cl | inactive: -21% | –
COc1ccccc1C(=O)N(Cc1cc2cccc(C)c2nc1N1CCC(O)CC1)C1CC1 | inactive: -0.303% | –
CCC(=O)NC1Cc2ccccc2C(c2ccccc2)C1 (stereo unspecified) | inactive: 15.5% | –
NC(N)=NCCC[C@@H](N)C(=O)O | inactive | –
COc1ccc2[nH]cc(CCNc3ncncc3-c3ccc(C(=O)N(C)C)cc3)c2c1 | inactive: -10.8% | –
COc1cccc(-c2nc(N(C)C)c3ccccc3n2)c1 | inactive: -0.184% | –
COc1ccc(S[C@@H](CCN2CC[C@H](C)CCC2=O)c2ccccc2)cc1 | inactive: -7.5% | –
C=C1C[C@]23C[C@@]1(O)CC[C@H]2[C@@]12C=C[C@H](O)C(C)(C(=O)O1)[C@H]2[C@@H]3CC(=O)O | inactive: -0.992% | –
COc1ccccc1CNc1ncncc1-c1cccnc1 | inactive: 9.25% | –
COc1ccccc1-c1ccnc(-n2ncc(C(=O)NC(c3cccnc3)C(F)(F)F)c2C)n1 (stereo unspecified) | inactive: 15.5% | –
CCNc1ncc2nc(-c3ccc(Cl)cc3)c(=O)n(Cc3cccs3)c2n1 | inactive: 24.9% | –

Structure (SMILES) | activity change, negative = inhibition | Potency
COc1ccccc1C(=O)N[C@@H]1c2ccccc2C2(CCN(C(=O)c3csnn3)CC2)[C@H]1OC | inactive: 5.95% | –
CN(C)C(=O)c1ccc(-c2nc(NCc3ccccc3)c3ccccc3n2)cc1 | inactive: 12% | –
COc1ccc(CN2CCC3(CC2)c2ccccc2[C@@H](NC(=O)c2ccccc2)[C@@H]3O)cc1O | inactive: 1.77% | –
COc1ccc(CNc2ncnc3ccc(-c4cccnc4)cc23)c(OC)c1 | inactive: 21.8% | –
Cc1ccc(=O)n(-c2ccccc2)c1 | inactive | –
CC(=O)[C@]1(O)CCC2C3CCC4=CC(=O)CC[C@@]4(C)C3CC[C@]21C (stereo partly specified) | inactive: 10.2% | –
Cc1cnc(SCc2ccccn2)nc1C1CCCN(C(=O)c2coc3c2C(=O)CCC3)C1 (stereo unspecified) | inactive: 0.122% | –
Cc1ccc2nc(/C=C/c3ccc(N(C)C)cc3)ccc2c1 | inactive: 29.3% | –
COc1ccc(-c2nc3cnc(N4CCN(C)CC4)nc3n(CCC#N)c2=O)cc1 | inactive: 1.09% | –
O=C(c1cnccn1)N1CCC2(CCCN(c3ccccn3)C2)CC1 | inactive: 5.63% | –
CN1CCC(=C2c3ccccc3Sc3ccccc32)CC1 | inactive: 294% | –
CC(C)c1c(C(=O)N2CCCCC2c2cccnc2)cnn1-c1nccc(-c2cccs2)n1 (stereo unspecified) | inactive: 21.6% | –
Nc1c2ccccc2nc2ccccc12 | inactive | –
COc1cccc(Nc2ncc3nc(-c4ccccc4)c(=O)n(C[C@H]4CCCO4)c3n2)c1 | inactive: 5.26% | –
CC(=O)NCCNc1cc(-c2ccccc2C(F)(F)F)ncn1 | inactive: 10.1% | –
CCCCCCCCCCCC[n+]1ccc(/C=C/c2c[nH]c3ccccc23)c2ccccc21 | inactive: -4.26% | –
CC(=O)N1CCC[C@H]1C(=O)NCC1Cc2cc(Cl)cc(-c3ccc4[nH]ccc4c3)c2O1 (stereo partly specified) | inactive: 14.4% | –
OC(C1=C/C(=C\c2ccncc2)c2ccccc21)c1ccncc1 (stereo unspecified) | inactive: -24.3% | –
O=C(NCCc1ccccn1)C1CC12CCN(C(=O)c1cccc(C(F)(F)F)c1)CC2 (stereo unspecified) | inactive: 9.57% | –
C[C@@H]1CNCCN1S(=O)(=O)c1cccc2cnccc12 | inactive: 3.3% | –
COCC(=O)Nc1cc(C(=O)N2CC3CCC2C3)c2c(c1)nc(-c1ccncc1)n2C (stereo unspecified) | inactive: 12.2% | –
C[C@@H](CN=[N+]=[N-])CN1CC[C@H](O)CCC1=O | inactive: 14.9% | –

Structure (SMILES) | activity change, negative = inhibition | Potency
O=C(C[n+]1cc(Br)cc2ccccc21)c1ccc(F)cc1 | inactive: 18.4% | –
Cc1cc(NC(=O)Nc2ccc3c(ccn3C)c2)sn1 | inactive | –
N#CCCn1c(=O)cnc2cnc(N3CCNCC3)nc21 | inactive: 7.74% | –
COC(=O)C1NC(=O)N2C(C(=O)OC)C(C)(C)S[C@H]12 (stereo partly specified) | inactive: 0.869% | –
Cc1cnc(CNc2cc(-c3ccc4c(c3)OCO4)ncn2)cn1 | inactive: 9.51% | –
COCCn1c(=O)cnc2cnc(N(C)C)nc21 | inactive: -6.19% | –
COc1ccc2c(c1)OC(C)CN(CCNC(=O)C1CCOC1)C2 (stereo unspecified) | inactive: 17.6% | –
O=C(CCCN1CCN(c2ccccn2)CC1)c1ccc(F)cc1 | inactive | –
COC(=O)c1cc(OC)c(=O)c2c(OC)c(OC)ccc2c1 | inactive: 18.9% | –
CN(C)c1ccc(-c2cc(-n3ccnc3)ncn2)cc1 | inactive: 9.54% | –
COc1cccc(-c2nc(N3CCN(C)CC3)c3ccccc3n2)c1 | inactive: 4.77% | –
O=S1(=O)CCOCCCN1Cc1ccc(Cl)cc1 | inactive: 9.3% | –
C=CC(C)(C)c1[nH]c2ccccc2c1C1=C(O)C(=O)C(c2c[nH]c3c(CC=C(C)C)cccc23)=C(O)C1=O | – | active: 56.2 µM
COc1ccc([C@@H]2[C@@H](O)[C@H](O)[C@@H](C)N2C)cc1OC | inactive: 23.2% | –
c1cncc(-c2cncnc2NCc2cccs2)c1 | inactive: 11.6% | –
N[C@@H](C(=O)O)c1ccc(C(=O)O)cc1 | inactive | –
OC(CN1CCOCC1)c1ccccc1 (stereo unspecified) | inactive: 8.5% | –
CO[C@H](C(=O)[C@@H](O)[C@@H](C)O)C1Cc2cc3cc(O[C@H]4C[C@@H](O[C@H]5C[C@@H](O)[C@H](O)[C@@H](C)O5)[C@@H](O)[C@@H](C)O4)c(C)c(O)c3c(O)c2C(=O)[C@H]1O[C@H]1C[C@@H](O[C@H]2C[C@@H](O[C@H]3C[C@](C)(O)[C@H](O)[C@@H](C)O3)[C@H](O)[C@@H](C)O2)[C@H](O)[C@@H](C)O1 (stereo partly specified) | inactive | –
